Experimental data taken from PubChem BioAssay AID1345083 (National Center for Advancing Translational Sciences (NCATS), 2018).
Among all 94,000 compounds or so, about 6,200 (6.6%) were called active. The shares of active, inactive and inconclusive entries below differ from those in the screen. Calls follow the shape of the dose curve; as a rule, active = well fitted inhibition curve with a large enough effect; inconclusive = small, poorly fitted or top-dose-only effect; inactive = flat fitted curve, though single readings scatter. Potencies of inconclusive entries are doubtful fits and often do not repeat.

Experiment: Cytotoxic Profiling in HEK 293 Cell Line of Diverse Libraries Using Quantitative High-Throughput Screening; also: nearly all actives have a fitted effect of over 60% in size
Conditions: HEK 293 viability, ATP luminescence (CellTiter-Glo), 48-72 h; activity change, negative = cytotoxicity: at 115 µM (top of the series) unless noted; series mostly up to 115 µM
In short: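 qHTS cytotoxicity; HEK 293, 250 cells/well; compound pinned; 48 or 72 hr, 37 degree Celsius, 5% CO2, 95% humidity; CellTiter-Glo, 10 min RT; luminescence (ATP).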
% is scaled to controls: 0 for no effect and ±100 for the full control effect; potency is read from the fitted curve at half-maximal effect; tags tell the direction and shape of the fitted curve.

Q: With O=C(CCc1ccc2c(c1)CN(C(=O)C1CC1)CCO2)NCCCn1cccn1 as the molecule, how does the “outcome” value read?
A: Its value is “inactive”.

Q: For Cn1ncc2c(C(=O)NC3CCCC3)cc(-c3cccc(C(F)(F)F)c3)nc21, which Potency is on record?
A: The Potency was inconclusive: 39.8 µM [inhibitor, partial curve, poor fit].

Q: For CC1(C)CC(Nc2nccc(-c3cnn(-c4ccccc4)c3)n2)CC(C)(C)N1, which Potency is on record?
A: Its Potency is inconclusive: 31.6 µM [inhibitor, full curve, poor fit].

Q: With CN1C(=O)CO[C@H]2CN(C(=O)C3CC3)C[C@H]21 as the molecule, how does the “outcome” value read?
A: The value was “inactive [at 230 µM]”.

Q: For O=C(NCc1ccc(Cl)cc1)C1CCCN(c2ccnc3ccnn23)C1 (stereo not drawn), which Potency is on record?
A: Its Potency is active: 50.1 µM.

Q: With CC(C)(C)c1ccc(-n2ncc3c2CCCC3NC(=O)c2c[nH]c(=O)[nH]c2=O)cc1 (stereo not drawn) as the molecule, how does the Potency read?
A: The Potency was active: 31.6 µM.

Q: Which “activity change, negative = cytotoxicity” value does the source give for COc1cccc(CC(=O)N2CCC(N3CC(OCC4CC4)C34CCOCC4)CC2)c1 (stereo not drawn) here?
A: Its value is inactive: -9.09%.

Q: With CC(C)C(=O)N1CCC2(CC1)NCCc1c2[nH]c2ccccc12 as the molecule, how does the Potency read?
A: The Potency was inconclusive: 31.6 µM [inhibitor, partial curve, poor fit].

Q: For N#Cc1ccc(C(=O)Nc2ccc3n(c2=O)C[C@H]2C[C@@H]3CN(C(=O)c3ccccn3)C2)cc1, which “activity change, negative = cytotoxicity” value is on record?
A: The value was inactive: -1.23%.

Q: With CC1=C[C@@H](CN2CCN(CCO)CC2)[C@H](C(C)C)C[C@H]1Cc1nnc(-c2ccccc2F)o1 as the molecule, how does the Potency read?
A: Its Potency is inconclusive: 50.1 µM [inhibitor, partial curve, poor fit].

Q: With O=C(c1ccccc1F)N1CCC(c2nn(-c3ccc(Cl)cc3)c(=O)[nH]2)CC1 as the molecule, how does the Potency read?
A: The Potency was active: 79.4 µM.

Q: For Cn1nccc1CN1CCCC2(COc3ccccc3C(=O)N2)C1 (stereo not drawn), which Potency is on record?
A: Its Potency is active: 28.2 µM.

Q: With CN(C)C[C@@H]1CN(c2ncccn2)C[C@H]1NC(=O)c1ccc2cc[nH]c2c1 as the molecule, how does the “outcome” value read?
A: The value was “inactive”.

Q: With COC(=O)[C@@H]1C[C@@H](NC(=O)c2ccc(-c3nnn(C)n3)cc2)CN1C as the molecule, how does the “activity change, negative = cytotoxicity” value read?
A: The value was inactive: -1.39%.

Q: With CCOC(=O)C1CCN(C(=O)c2ccc3c(c2)N(CC)C2CCCCCN2C3=O)CC1 (stereo not drawn) as the molecule, how does the Potency read?
A: The Potency was inconclusive: 20 µM [inhibitor, full curve].

Q: For Cc1nsc(NC(=O)N2CCC(CO)CC2)n1, which “activity change, negative = cytotoxicity” value is on record?
A: The value was inactive: -4.07%.

Q: Which “activity change, negative = cytotoxicity” value does the source give for O=C(Cn1nc2n(c1=O)CCCCC2)Nc1ccc(C(F)(F)F)cc1 here?
A: The value was inactive: -3.58%.

Q: With Cc1ccc(-c2ncc(C(=O)O)c(-c3ccncc3)n2)cc1 as the molecule, how does the “activity change, negative = cytotoxicity” value read?
A: The value was inactive: -5.61%.

Q: Which “activity change, negative = cytotoxicity” value does the source give for O=C(NCc1ccccc1F)c1nc2sccn2c1-c1cccc(C(F)(F)F)c1 here?
A: Its value is inactive: -9.34%.

Q: With CSc1ccc(NC(=O)N2CCC(N(CCC(C)C)C3CCOCC3)CC2)cc1 as the molecule, how does the Potency read?
A: The Potency was inconclusive: 39.8 µM [inhibitor, full curve, poor fit].

Q: For Cn1ncc2c(C(=O)NCC3CC3)cc(-c3ccccc3F)nc21, which Potency is on record?
A: Its Potency is inconclusive: 100 µM [inhibitor, partial curve].

Q: Which Potency does the source give for Cn1ccnc1C(=O)C1CCCN(Cc2cc(=O)c3cccc(Cl)c3[nH]2)C1 (stereo not drawn) here?
A: Its Potency is inconclusive: 79.4 µM [inhibitor, partial curve, poor fit].

Q: For Cc1nc(CN2C(=O)OC3(CCN(Cc4ccc(C(C)C)cc4)CC3)C2(C)c2ccccc2)cs1 (stereo not drawn), which Potency is on record?
A: Its Potency is inconclusive: 50.1 µM [inhibitor, partial curve, poor fit].

Q: For COC(=O)CCNC(=O)C1c2ccccc2C(=O)N(C2CCCC2)C12CCCCC2 (stereo not drawn), which Potency is on record?
A: The Potency was inconclusive: 70.8 µM [inhibitor, partial curve, poor fit].

Q: Which Potency does the source give for COc1ccc2c3c1C1COC(=O)N1CC3=CC(C)(C)CO2 (stereo not drawn) here?
A: The Potency was inconclusive: 44.7 µM [inhibitor, partial curve, poor fit].

Q: With O=C1CCC2(C(=O)NCCCN3CCCc4ccccc43)CCCC=C2N1C1CCCC1 (stereo not drawn) as the molecule, how does the Potency read?
A: Its Potency is inconclusive: 50.1 µM [inhibitor, partial curve, poor fit].

Q: For Cc1ccc(CN2CCc3nc(C(=O)Nc4ccccc4)oc3CC2)cc1, which Potency is on record?
A: Its Potency is inconclusive: 63.1 µM [inhibitor, full curve].

Q: For COCCN1C[C@H]2COc3ccccc3[C@H]2N(C(=O)OCC(C)C)CCC1=O, which Potency is on record?
A: Its Potency is inconclusive: 79.4 µM [inhibitor, partial curve, poor fit].

Q: For O=C(C1CCCC1)N1CCCC(c2nn(-c3ccccn3)c(=O)[nH]2)C1 (stereo not drawn), which “activity change, negative = cytotoxicity” value is on record?
A: Its value is inactive: -1.84%.

Q: For CN1c2cc(C(=O)N3CCN(c4ccc(Cl)cc4)CC3)ccc2C(=O)N2CCCCC21 (stereo not drawn), which Potency is on record?
A: The Potency was inconclusive: 44.7 µM [inhibitor, partial curve, poor fit].

Q: For O=C1O[C@@H]2[C@H]3[C@@H]([C@H]1C[C@H]2O)N(c1ccccc1)C(=S)N3Cc1ccccc1, which “activity change, negative = cytotoxicity” value is on record?
A: The value was inactive: -20% [at 172 µM].

Q: With COc1ccc(CN[C@H](C)c2onc(C)c2C(=O)O)cc1 as the molecule, how does the “activity change, negative = cytotoxicity” value read?
A: Its value is inactive: -8.93% [at 172 µM].

Q: With Cc1cc(CN(C)C(=O)c2cc(COc3cncc(Cl)c3)on2)on1 as the molecule, how does the “activity change, negative = cytotoxicity” value read?
A: The value was inactive: -29.1%.

Q: Which Potency does the source give for CCOc1ccccc1CNC(=O)c1cc(NC(C)=O)cc2nc(C)ccc12 here?
A: The Potency was inconclusive: 89.1 µM [inhibitor, single point].

Q: For COc1ccc(NC(=O)Cc2c[nH]c3ncc(-c4ccccc4C)cc23)cc1, which Potency is on record?
A: The Potency was active: 79.4 µM.

Q: For Cn1cccc1CN1CCC2(CC1)CN(c1ncccn1)CC2CO (stereo not drawn), which “activity change, negative = cytotoxicity” value is on record?
A: The value was inactive: -16.8%.

Q: With CN(CC1CCOCC1)S(=O)(=O)c1cc(F)cc(F)c1 as the molecule, how does the “activity change, negative = cytotoxicity” value read?
A: The value was inactive: 1.22%.

Q: Which “activity change, negative = cytotoxicity” value does the source give for O=C(c1ccccc1F)N1CCC2(CC1)CC(OCC1CC1)CCO2 (stereo not drawn) here?
A: The value was inactive: 11.7%.

Q: For Cc1cccc(-c2nc3ccc(C(=O)NCCc4ccccc4)cc3o2)n1, which Potency is on record?
A: Its Potency is active: 100 µM.

Q: With COc1cccc(CCC(=O)N2C[C@@H](C(N)=O)[C@H](c3nc(C)no3)C2)c1 as the molecule, how does the “activity change, negative = cytotoxicity” value read?
A: The value was inactive: -2.9%.

Q: For CC(C)c1ccc([S+](=O)([O-])N2CC(CNC(=O)c3cnn(C)c3)C3(CN(c4ccccc4)C3)C2)cc1 (stereo not drawn), which Potency is on record?
A: Its Potency is inconclusive: 89.1 µM [inhibitor, partial curve, poor fit].

Q: With Fc1ccc(-c2cc(CC3(NCC4CCCCC4)COC3)no2)cc1 as the molecule, how does the Potency read?
A: Its Potency is inconclusive: 50.1 µM [inhibitor, full curve, poor fit].

Q: For Cn1ncc2c(C(=O)N3CCCC3)cc(-c3ccc(C(F)(F)F)cc3)nc21, which Potency is on record?
A: The Potency was inconclusive: 50.1 µM [inhibitor, partial curve, poor fit].

Q: For CC1=C(C(=O)OC(C)(C)C)C(c2ccccc2)N2C(CC(=O)N3CCCC3)=CSC2=N1 (stereo not drawn), which Potency is on record?
A: Its Potency is inconclusive: 56.2 µM [inhibitor, partial curve, poor fit].

Q: Which Potency does the source give for COc1ccc(NC(=O)CCC2CCCN(S(=O)(=O)c3ccc(C)cc3)C2)c(OC)c1 (stereo not drawn) here?
A: Its Potency is inconclusive: 50.1 µM [inhibitor, partial curve, poor fit].

Q: With Cc1cccc(NC(=O)CN2C(=O)NC(c3ccccc3Cl)C3=C2COC3=O)c1 (stereo not drawn) as the molecule, how does the Potency read?
A: Its Potency is inconclusive: 89.1 µM [inhibitor, single point].

Q: With COc1ccc(C(=O)Nc2cccc(-c3nnc4n3CCCC4)c2)c(C)c1 as the molecule, how does the “activity change, negative = cytotoxicity” value read?
A: The value was inactive: -11.3%.

Q: For COc1ccc(C(=O)N2CCC3(CC2)N=C(c2cccc(Br)c2)NO3)cc1OC, which Potency is on record?
A: The Potency was inconclusive: 56.2 µM [inhibitor, partial curve, poor fit].

Q: Which Potency does the source give for COc1cccc(C(=O)N2CC(Oc3ccccc3-c3nc(C4CC4)no3)C2)c1 here?
A: Its Potency is inconclusive: 44.7 µM [inhibitor, partial curve, poor fit].

Q: Which Potency does the source give for FC(F)(F)c1ccc2nc([C@H]3CCN(C4CCCCC4)C3)[nH]c2c1 here?
A: Its Potency is inconclusive: 44.7 µM [inhibitor, full curve, poor fit].

Q: Which “activity change, negative = cytotoxicity” value does the source give for CC(=O)N1CCC(C(=O)N2CCC(c3ccccc3)CC2)CC1 here?
A: The value was inactive: 2.01% [at 172 µM].

Q: With c1cncc(-c2nc(-c3ccc(OC4CNC4)cc3)no2)c1 as the molecule, how does the Potency read?
A: The Potency was inconclusive: 50.1 µM [inhibitor, partial curve, poor fit].

Q: With O=C(Cc1cccc(F)c1)N1CCC2(CC1)NCCc1c2[nH]c2ccccc12 as the molecule, how does the Potency read?
A: The Potency was inconclusive: 50.1 µM [inhibitor, partial curve, poor fit].

Q: For COc1ccc(-c2nc(C)nc3c2CN([S+](=O)([O-])c2cccc(C(F)(F)F)c2)CC3)cc1, which Potency is on record?
A: Its Potency is inconclusive: 25.1 µM [inhibitor, single point].

Q: With O=C1c2c(nc(CNCc3cccc(Cl)c3)n2Cc2ccccc2)NCCN1CC1CC1 as the molecule, how does the Potency read?
A: Its Potency is inconclusive: 50.1 µM [inhibitor, partial curve, poor fit].

Q: For O=c1[nH]c2cccnc2n1C1CCCC1, which Potency is on record?
A: Its Potency is inconclusive: 141 µM [inhibitor, partial curve, poor fit].

Q: With CCc1nnc(CN(C)c2cc(C3CC(O)C3)nc(N)n2)o1 (stereo not drawn) as the molecule, how does the “activity change, negative = cytotoxicity” value read?
A: Its value is inactive: -17.8%.

Q: For COc1ccc(CNC(=O)c2cc3n(n2)CC(c2ccc(Cl)cc2)OC3)cc1OC (stereo not drawn), which Potency is on record?
A: Its Potency is inconclusive: 39.8 µM [inhibitor, partial curve, poor fit].

Q: With Cc1nnc(-c2cc(N3CCN(c4ccccn4)CC3)ccn2)n1C1CCCCC1 as the molecule, how does the Potency read?
A: The Potency was inconclusive: 100 µM [inhibitor, partial curve].

Q: Which “activity change, negative = cytotoxicity” value does the source give for CSCC(=O)N(Cc1ccncc1)C1CCN(C)CC1 here?
A: Its value is inactive: -8.89%.

Q: Which Potency does the source give for O=C(CN1C(=O)COc2ccc(C(=O)COc3ccc(Cl)cc3F)cc21)NC1CCCCC1 here?
A: Its Potency is active: 28.2 µM.

Q: Which “activity change, negative = cytotoxicity” value does the source give for Fc1ccc(OCCc2noc(C3CCCNC3)n2)cc1 (stereo not drawn) here?
A: The value was inactive: -19.2%.

Q: For COc1ccc(NC(=O)Cn2c(-c3cccc(Cl)c3)nc(C)c(CCO)c2=O)cc1OC, which Potency is on record?
A: The Potency was inconclusive: 56.2 µM [inhibitor, partial curve, poor fit].

Q: With COc1ccc(CNC(=O)c2cc3c(s2)CCN(C(=O)c2ccc(C)cc2)C3)cc1 as the molecule, how does the Potency read?
A: Its Potency is inconclusive: 39.8 µM [inhibitor, full curve, poor fit].

Q: For CCCc1ccccc1OCC(=O)c1ccc2c(c1)N(CC(=O)N1CCOCC1)C(=O)CO2, which Potency is on record?
A: The Potency was inconclusive: 89.1 µM [inhibitor, single point].

Q: With CN(C)C[C@@H]1CN(C)C[C@H]1NS(=O)(=O)c1ccc(Br)cc1 as the molecule, how does the “activity change, negative = cytotoxicity” value read?
A: The value was inactive: -8.08%.

Q: With CC(=O)Nc1ccc(C(=O)NC2CCN(c3cc(-c4ccccc4)[nH]n3)CC2)cc1 as the molecule, how does the “activity change, negative = cytotoxicity” value read?
A: The value was inactive: -22%.

Q: Which “activity change, negative = cytotoxicity” value does the source give for Cc1noc(C)c1CN1CCC2(CC1)CC(C(=O)N1CCOCC1)N(C)C2 (stereo not drawn) here?
A: The value was inactive: 3.46%.
